{"source": "paper PMC4336329", "about": "(PLoS ONE, 2015)", "note": "The whole screen tested about 310,000 compounds, of which about 2,200 (0.71%) showed an effect of 50% or more. The effect is printed as a negative number. The list shows a part of the results."}
{"biological_target": "human ether-à-go-go-related gene (hERG) potassium channel (human, UniProt Q12809)", "sequence (Q12809 whole entry, looked up)": "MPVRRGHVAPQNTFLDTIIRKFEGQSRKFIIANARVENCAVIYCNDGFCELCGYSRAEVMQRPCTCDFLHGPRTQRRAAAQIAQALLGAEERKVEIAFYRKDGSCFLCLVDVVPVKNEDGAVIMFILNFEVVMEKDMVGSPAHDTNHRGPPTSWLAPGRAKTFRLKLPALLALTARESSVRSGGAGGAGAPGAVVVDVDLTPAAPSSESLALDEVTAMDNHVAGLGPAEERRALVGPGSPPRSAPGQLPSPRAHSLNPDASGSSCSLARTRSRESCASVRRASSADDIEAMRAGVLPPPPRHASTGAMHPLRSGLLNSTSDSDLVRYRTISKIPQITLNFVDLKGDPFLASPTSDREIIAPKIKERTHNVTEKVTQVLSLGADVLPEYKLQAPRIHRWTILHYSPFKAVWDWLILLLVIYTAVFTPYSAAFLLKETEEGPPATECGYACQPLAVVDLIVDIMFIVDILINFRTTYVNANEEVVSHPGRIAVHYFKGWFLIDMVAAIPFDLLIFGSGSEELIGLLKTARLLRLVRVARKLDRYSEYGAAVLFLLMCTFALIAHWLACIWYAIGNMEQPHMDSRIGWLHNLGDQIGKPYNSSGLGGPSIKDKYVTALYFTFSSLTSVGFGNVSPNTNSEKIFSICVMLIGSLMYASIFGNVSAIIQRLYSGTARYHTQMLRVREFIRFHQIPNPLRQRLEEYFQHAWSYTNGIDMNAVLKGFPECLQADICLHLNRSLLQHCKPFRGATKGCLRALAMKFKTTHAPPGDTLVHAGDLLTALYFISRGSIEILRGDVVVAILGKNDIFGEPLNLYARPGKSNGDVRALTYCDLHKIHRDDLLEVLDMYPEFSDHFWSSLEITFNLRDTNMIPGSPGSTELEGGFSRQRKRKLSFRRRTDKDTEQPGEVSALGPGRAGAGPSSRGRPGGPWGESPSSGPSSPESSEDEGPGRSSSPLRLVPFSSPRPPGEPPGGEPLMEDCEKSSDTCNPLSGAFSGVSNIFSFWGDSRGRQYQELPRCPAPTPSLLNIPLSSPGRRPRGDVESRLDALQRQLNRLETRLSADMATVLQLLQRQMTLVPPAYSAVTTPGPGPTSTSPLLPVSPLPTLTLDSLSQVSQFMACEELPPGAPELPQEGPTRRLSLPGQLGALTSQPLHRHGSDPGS", "assay": "primary screen, population patch clamp on CHO cells stably expressing hERG", "units": {"hERG current change (%, negative = inhibition) at 1uM": "%"}}
{"smiles": "COC(=O)c1cc(-c2ccccc2)n(CCN)c1C.Cl", "hERG current change (%, negative = inhibition) at 1uM": 10.7}
{"smiles": "Cc1ccc(C2NC(=O)NC3=C2CCc2ccccc23)cc1", "note": "(centres unmarked)", "hERG current change (%, negative = inhibition) at 1uM": 4.51}
{"smiles": "CCN(CC)P(=O)(Nc1ccccc1Br)c1ccc(N(C)C)cc1NC(=O)c1ccco1", "note": "(centres unmarked)", "hERG current change (%, negative = inhibition) at 1uM": 2.61}
{"smiles": "Cc1cc(NC(=O)c2cccs2)cc(-c2nc3ncccc3o2)c1O", "hERG current change (%, negative = inhibition) at 1uM": 9.47}
{"smiles": "Cc1[nH]c2ccccc2c1SCCNC(=O)c1ccc(S(=O)(=O)N2CCCC2)cc1", "hERG current change (%, negative = inhibition) at 1uM": 2.47}
{"smiles": "C/C(=N/NC(=O)CC1N=C(Cc2ccccc2)NNC1=O)c1cccnc1", "note": "(centres unmarked)", "hERG current change (%, negative = inhibition) at 1uM": 9.54}
{"smiles": "CCOc1ccc(N(CC(=O)NC(C(C)C)C(C)C)S(=O)(=O)c2ccc(OC)c(OC)c2)cc1", "hERG current change (%, negative = inhibition) at 1uM": 19.4}
{"smiles": "CC(=O)N1N=C(c2ccco2)CC1c1ccc(Cl)o1", "note": "(centres unmarked)", "hERG current change (%, negative = inhibition) at 1uM": 21.4}
{"smiles": "Cn1c(=O)[nH]c(=O)c2c1nc(N1CCOCC1)n2CCSc1nc2ccccc2[nH]1", "hERG current change (%, negative = inhibition) at 1uM": 16.8}
{"smiles": "COc1cccc(OC)c1OCCCCn1cnc2ccccc2c1=O.O=C(O)C(=O)O", "hERG current change (%, negative = inhibition) at 1uM": -5.18}
{"smiles": "Oc1c(Br)cc(C2N=C(c3ccccc3Cl)NO2)cc1Br", "note": "(centres unmarked)", "hERG current change (%, negative = inhibition) at 1uM": 0.471}
{"smiles": "COc1ccc(CNC(=O)c2cccc(-c3ccc(C)c4ccccc34)n2)cc1", "hERG current change (%, negative = inhibition) at 1uM": 8.29}
{"smiles": "COc1ccc(-c2nc(CSCC(=O)N3CCN(C(=O)c4ccco4)CC3)c(C)o2)cc1OC", "hERG current change (%, negative = inhibition) at 1uM": -2.27}
{"smiles": "C=CCn1c(Cc2nc3ccccc3[nH]2)n[nH]c1=S", "hERG current change (%, negative = inhibition) at 1uM": 13.4}
{"smiles": "Cc1cccc(NC(=O)CSc2nc3[nH]ncc3c(=O)[nH]2)c1C", "hERG current change (%, negative = inhibition) at 1uM": 16.4}
{"smiles": "O=C1c2ccccc2NC(c2cccc(O)c2)N1c1ccccc1", "note": "(centres unmarked)", "hERG current change (%, negative = inhibition) at 1uM": 20.4}
{"smiles": "COc1ccc(-n2c(SCC(=O)NCC3CCCO3)nc3n[nH]c(C)c3c2=N)cc1", "note": "(centres unmarked)", "hERG current change (%, negative = inhibition) at 1uM": 7.29}
{"smiles": "COc1ccc(CCNC(=O)CN(c2ccccc2OC)S(C)(=O)=O)cc1", "hERG current change (%, negative = inhibition) at 1uM": 5.19}
{"smiles": "O=C(NC(=S)NNC(=O)c1cnccn1)c1ccc(Cl)cc1", "hERG current change (%, negative = inhibition) at 1uM": 11.2}
{"smiles": "Cc1ccc(-n2nnnc2SCC(=O)N2c3ccccc3NC(=O)C2(C)C)cc1", "hERG current change (%, negative = inhibition) at 1uM": -4.24}
{"smiles": "COc1cc(OC)cc(C(=O)NC(C(=O)Nc2ccc3c(c2)CCC3)C(C)C)c1", "note": "(centres unmarked)", "hERG current change (%, negative = inhibition) at 1uM": 9.07}
{"smiles": "CC(=O)c1ccccc1NS(=O)(=O)c1ccccc1Cl", "hERG current change (%, negative = inhibition) at 1uM": 11}
{"smiles": "Cc1ccccc1OCCC(=O)N(Cc1ccccc1)c1c(N)n(Cc2ccccc2)c(=O)[nH]c1=O", "hERG current change (%, negative = inhibition) at 1uM": 3.9}
{"smiles": "CC(C)C(=O)N=c1sc2cccc(F)c2n1C", "hERG current change (%, negative = inhibition) at 1uM": -1.45}
{"smiles": "O=C(Nc1ccccc1F)C1CCCN(S(=O)(=O)c2cccc3cccnc23)C1", "note": "(centres unmarked)", "hERG current change (%, negative = inhibition) at 1uM": 2.79}
{"smiles": "O=C(Oc1ccc(-c2nnco2)cc1)c1ccc(F)c(S(=O)(=O)N2CCOCC2)c1", "hERG current change (%, negative = inhibition) at 1uM": 11.6}
{"smiles": "COc1ccc(S(=O)(=O)N2CCCCC2)cc1NC(=O)CSc1nnc(C2CC2)n1C", "hERG current change (%, negative = inhibition) at 1uM": -2.45}
{"smiles": "CC(=O)NCCOc1ccc2oc3ccccc3c2c1", "hERG current change (%, negative = inhibition) at 1uM": 3.44}
{"smiles": "CC(Cc1cccs1)NC(=O)CCCn1nnnc1CN1CCOCC1", "note": "(centres unmarked)", "hERG current change (%, negative = inhibition) at 1uM": 13.7}
{"smiles": "CN(c1ccccc1)S(=O)(=O)c1ccc(Cl)nc1", "hERG current change (%, negative = inhibition) at 1uM": 1.62}
{"smiles": "CCOC(=O)C1CCN(c2nc3cc(OC)ccc3cc2C#N)CC1", "hERG current change (%, negative = inhibition) at 1uM": -7.3}
{"smiles": "O=C(CSc1nc2ccccc2c(=O)n1CC1CCCO1)Nc1ccccc1", "note": "(centres unmarked)", "hERG current change (%, negative = inhibition) at 1uM": -5}
{"smiles": "O=C(CSc1nccn1-c1ccccc1)Nc1ccc2c(c1)OCO2", "hERG current change (%, negative = inhibition) at 1uM": 13.3}
{"smiles": "CCCSc1nc(=O)n2cccc(C)c2n1", "hERG current change (%, negative = inhibition) at 1uM": -2.94}
{"smiles": "Cc1nn(-c2ccccc2)nc1-c1nnc(-c2ccc(C(F)(F)F)cc2)o1", "hERG current change (%, negative = inhibition) at 1uM": 19.8}
{"smiles": "CCN(CC(=O)NCc1cccs1)C(=O)c1cccc(S(=O)(=O)Nc2ccccc2Cl)c1", "hERG current change (%, negative = inhibition) at 1uM": -6.48}
{"smiles": "CN(C)C=NC(=O)c1cc(C(=O)c2ccc(Cl)cc2Cl)c[nH]1", "hERG current change (%, negative = inhibition) at 1uM": 12.6}
{"smiles": "CCCc1cc(=O)[nH]c(SCC(=O)OCc2ccccc2)n1", "hERG current change (%, negative = inhibition) at 1uM": 6.22}
{"smiles": "C/C(=C/C(=O)O)C(=O)Nc1cccc(C(F)(F)F)c1", "hERG current change (%, negative = inhibition) at 1uM": -2.33}
{"smiles": "N/C(=N\\OC(=O)c1cnn(-c2ccccc2)c1C(F)(F)F)c1cc(C(F)(F)F)cc(C(F)(F)F)c1", "hERG current change (%, negative = inhibition) at 1uM": 12.9}
{"smiles": "CCOCc1nc(N)[nH]c(=O)c1Cc1ccc(OC(C)C)cc1", "hERG current change (%, negative = inhibition) at 1uM": 11.5}
{"smiles": "COc1ccc(NC(=O)CS(=O)CC(=O)Nc2ccc(OC)c(OC)c2)cc1", "note": "(centres unmarked)", "hERG current change (%, negative = inhibition) at 1uM": 14.4}
{"smiles": "CC(C)Cn1c(N)c(C(=O)COC(=O)Cc2cccs2)c(=O)n(C)c1=O", "hERG current change (%, negative = inhibition) at 1uM": -16}
{"smiles": "COc1cc(C(=S)N2CCOCC2)cc(OC)c1OS(=O)(=O)c1ccc(NC(C)=O)cc1", "hERG current change (%, negative = inhibition) at 1uM": -4.68}
